Our source for the TGI and GI50 values is PubChem BioAssay (NCI).

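How tested: cells in 96-well plates exposed to compound for 48 hours at five concentrations. GI50: concentration for 50% inhibition of growth.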 For part of its entries the source gives two or more results. The other results are left out here. The source may hold further records. For some of these results: Values that stand side by side repeat one measurement in other runs, samples, wells, individuals or studies. Records carry a tag for their origin. The letters are not those of the source and start again with each entry.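 At the TGI there is no net growth.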 For some of these results: Records of one sample usually come from different ranges of test concentrations, not given here; some values may only mark the edge of a range.

What all share (experiment): NCI-60 cell line screen, 48 h
The test system of test [1] is SNB-75 CNS.
For test [2], the system named is HS 578T breast.
For test [3], the system named is OVCAR-8 ovarian.
The test system of test [4] is MOLT-4 leukemia.
In test [5] the test system is SK-MEL-5 melanoma.
The subject of test [6] is IGROV1 ovarian.
In test [7] the test system is CCRF-CEM leukemia.
The subject of test [8] is HL-60(TB) leukemia.
The subject of test [9] is EKVX NSCLC.
Test [10] deals with NCI/ADR-RES ovarian.
Test [11] concerns KM20L2 colon.
In test [12] the test system is UACC-62 melanoma.
Test [13] deals with U251 CNS.
The test system of test [14] is UACC-257 melanoma.
Test [15] deals with OVCAR-5 ovarian.
The test system of test [16] is SF-295 CNS.
Test [17] relates to HT29 colon.
Test [18] relates to OVCAR-4 ovarian.

For the molecule `Clc1ccc(N/N=C(\c2ccccc2)c2ccccn2)nc1`, the TGI in test [1] was 3.99 µM [sample A] and > 51.9 µM [sample B]; in test [2], 4.29 µM [sample A] and > 100 µM [sample B]; in test [3], 22 nM [sample A] and > 100 µM [sample B]; in test [4] it was 4.41 µM [sample A] and > 66.5 µM [sample B]; in [5], 11.9 µM [sample A] and 1.13 µM [sample B]; in [6], 2.45 µM [sample A] and > 41.3 µM [sample B]. Besides, the TGI is 3.64 µM [sample A] and > 37 µM [sample B] in test [7]; 29.3 µM [sample A] and 982 nM [sample B] in test [8]; 5 µM [sample A] and > 100 µM [sample B] in test [9]; 64.3 nM [sample A] and 7.15 µM [sample B] in test [10].

`COc1cccc2c1C(=O)c1c(O)c3c(c(O)c1C2=O)C[C@@](O)(C(C)=O)C[C@@H]3OC1CC(O)C(O)C(C)O1` (some centres not stated): the TGI in test [11] is 0.562 nM, 8.73 µM, 33 µM; in test [12], 8.82 nM, 5.78 µM, 4.39 µM; in test [13], 0.454 nM, 8.31 µM, 6.31 µM; in [1], 4.8 nM, 9.8 µM, 9.02 µM; in test [3], 0.407 nM, 9.62 µM, 19 µM; in test [14], 0.906 nM, 8.81 µM, 18.4 µM. Further, the TGI in test [15] is 0.513 nM and 7.34 µM; in [6], 4.73 nM and 26.2 µM; in test [16], 0.411 nM, 7.9 µM, 5.41 µM; in [17], 0.802 nM and 16.4 µM; in [10], 0.302 nM and 22.2 µM.

Turning to `C=CCN1C(=O)/C(=C/c2ccc(OC)cc2)N=C1SC1OC(COC(C)=O)C(OC(C)=O)C(OC(C)=O)C1OC(C)=O` (configuration not stated), in test [18], the GI50 is 5.71 µM [sample A, mean of 2 tests] and > 100 µM [sample B, 1 test].
